{
  "source": "the supplement of paper PMC11417369",
  "note": "The list shows a part of the results.",
  "data": [
    {"system": "PfSIP2 AP2 domain 1 (GST-tagged)", "assay": "gcPBM binding intensity (ln(normalized median fluorescence intensity)); higher = stronger DNA binding", "how_it_was_run": "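Probes on an Agilent 4 × 180k array were primer-extended, double-stranded and 36 bp long, taken from intergenic genomic regions, with negative controls added. GST-tagged P. falciparum DNA-binding domains from E. coli, about 25 μg on average, were applied to the array for 1 h in 1× PBS containing 1% milk, 0.2 mg/ml BSA, 0.5% salmon testes DNA and 0.03% Triton X-100. Binding intensity, obtained after Alexa488 anti-GST antibody detection and a 488 nm scan, is the highest Masliner-normalised natural-log median intensity across replicate spots of either probe orientation.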", "values": [
      {"sequence": "AGACTTTGTACAAACACACACATGAACACAATATTA [CACACA_site1360]", "gcPBM binding intensity (ln)": 7.22},
      {"sequence": "AATCATAAAATCATATGTACACATTTTTCCTATGAT [XGTACX_site8799]", "gcPBM binding intensity (ln)": 6.93},
      {"sequence": "ATTTTATTAATTTGGTGTACTTAATTTATATTTTTC [XGTACX_site4947]", "gcPBM binding intensity (ln)": 6.94},
      {"sequence": "AAAAAAAAAAAATAATAAATAAATAAAAATAAATGA [CACACA_negctrl_site1623]", "gcPBM binding intensity (ln)": 6.78},
      {"sequence": "GAACCGTGCAAATGTTGTACACTTTAAAAATATTCT [XGTACX_site4488]", "gcPBM binding intensity (ln)": 8.21},
      {"sequence": "ATATGTGTGTAGTGTTCAATTATATTGATGTGAAGG [TGCATGCA_negctrl_site462]", "gcPBM binding intensity (ln)": 7.13},
      {"sequence": "TTATAATAATTTTATGCACACAGAAAAATACAAGGT [CACACA_site9169]", "gcPBM binding intensity (ln)": 8.21},
      {"sequence": "ATAATATATATATTAACACACATCCTTTTATGTATA [CACACA_site1203]", "gcPBM binding intensity (ln)": 6.94},
      {"sequence": "TACATATAGAAACACACACACATATATATATATATA [CACACA_site1300]", "gcPBM binding intensity (ln)": 9.59},
      {"sequence": "TAGGAGCCTAGACACACACACAAAAAAAAAAAAAAA [CACACA_site6911]", "gcPBM binding intensity (ln)": 6.85},
      {"sequence": "AAAACGAAAATTTGGAAACCAAAGGAAAAACATAAT [GTGCAC_negctrl_site709]", "gcPBM binding intensity (ln)": 7.01},
      {"sequence": "AAAAAGGTTATTGGTACACACATATGTATATATATA [CACACA_site552]", "gcPBM binding intensity (ln)": 8.31},
      {"sequence": "TATTTAATGTGATACTTATATTATTTTATGATTAAA [GTGCAC_negctrl_site25]", "gcPBM binding intensity (ln)": 6.72},
      {"sequence": "TATACATACTCACCCACACACAAAAAAAAAAAAAAA [CACACA_site862]", "gcPBM binding intensity (ln)": 7.23},
      {"sequence": "TATATAAGAATTTTTACACACATGAAAATGTAGATA [CACACA_site3735]", "gcPBM binding intensity (ln)": 6.83},
      {"sequence": "GTTAGGATAGATTAGACATGCACATAAATGCACTTC [TGCATGCA_site561]", "gcPBM binding intensity (ln)": 11},
      {"sequence": "TTTTTATAGAATTTAACACACATTTCATATAAAAAA [CACACA_site7453]", "gcPBM binding intensity (ln)": 6.94},
      {"sequence": "TATATAACATAATATACACACATTATATGCGTAATT [CACACA_site6098]", "gcPBM binding intensity (ln)": 6.9},
      {"sequence": "TTAAAATTCAAAAAAAAAAATCAGAATATCAGAAAA [CACACA_negctrl_site1361]", "gcPBM binding intensity (ln)": 6.86},
      {"sequence": "GATATATAAATAAATACACACATAAAATAGAAATAT [CACACA_site6881]", "gcPBM binding intensity (ln)": 7.27},
      {"sequence": "ATTAAAGAAATATATACACACATTATGGGGGAATAA [CACACA_site178]", "gcPBM binding intensity (ln)": 7.49},
      {"sequence": "ACATATTAAAATATATGTACATAAAATATGAAAAAA [XGTACX_site5869]", "gcPBM binding intensity (ln)": 7.16},
      {"sequence": "ATATTTATTCCTTTTGGTACACAAAAAAAAAAAAAA [XGTACX_site8126]", "gcPBM binding intensity (ln)": 6.97},
      {"sequence": "AATTTAAGCAGAACATATATATATATATATATAAAG [CACACA_negctrl_site769]", "gcPBM binding intensity (ln)": 7.43},
      {"sequence": "TATATGCTATAATATACACACATACCTATATTTATA [CACACA_site6383]", "gcPBM binding intensity (ln)": 7.07},
      {"sequence": "TTTAAATGCTTTTTGTGGTGACTTATCCTTTCATAA [XGTACX_negctrl_site109]", "gcPBM binding intensity (ln)": 6.77},
      {"sequence": "AATTATTTCTTTTACACATGCAATATTTAATTAAAA [TGCATGCA_site598]", "gcPBM binding intensity (ln)": 7.01},
      {"sequence": "TTATTTGATTACTTGCGTACTTATTTCATATTTTTT [XGTACX_site6648]", "gcPBM binding intensity (ln)": 6.89},
      {"sequence": "ATGAGAAAACATAAAAGTACAAAAAGAAAAAAAAAA [XGTACX_site6020]", "gcPBM binding intensity (ln)": 6.71},
      {"sequence": "TCATAGTATGGACACACACACACACCCATATATATA [CACACA_site5033]", "gcPBM binding intensity (ln)": 7.46},
      {"sequence": "TTGGGTCAAACATAAACACACACAAAAAGAAAAAAT [CACACA_site8328]", "gcPBM binding intensity (ln)": 6.87},
      {"sequence": "TATTATATTAATGATGGTACAGTGTATATATATAAT [XGTACX_site1286]", "gcPBM binding intensity (ln)": 7.15},
      {"sequence": "ACATATAATATAAAGTGTACAAGAAAATAAAAATAA [XGTACX_site1273]", "gcPBM binding intensity (ln)": 6.98},
      {"sequence": "TTTCCATATTTTTAAAGTACATATTTCCGTTTCCAC [XGTACX_site7832]", "gcPBM binding intensity (ln)": 7.08},
      {"sequence": "TAATAATAAACAACCACACACAAAAAAACAAAAAAA [CACACA_site3269]", "gcPBM binding intensity (ln)": 6.98},
      {"sequence": "GTAGCACATATATATTGTACATAATATATACATTAT [XGTACX_site6354]", "gcPBM binding intensity (ln)": 7.04},
      {"sequence": "ATTTAATTATGTAAGTGTACTTTGGAATATAATATT [XGTACX_site3186]", "gcPBM binding intensity (ln)": 7.14},
      {"sequence": "TTTATTTTATAATTCACACATATATACCTATTTTAT [CACACA_site5709]", "gcPBM binding intensity (ln)": 6.95},
      {"sequence": "GTGTGGTGCTCGAGGAGTACAAACAATATGTAATTT [XGTACX_site4160]", "gcPBM binding intensity (ln)": 9.03},
      {"sequence": "TAAACAGACATATAAACACACATATAAACAGACATA [CACACA_site7214]", "gcPBM binding intensity (ln)": 6.98},
      {"sequence": "TTTTCTTCCTATTATTGTACATATAGTATTCTTTCA [XGTACX_site4428]", "gcPBM binding intensity (ln)": 7.2},
      {"sequence": "AATATAAGTAATTATACACACTTAATATTTATATAC [CACACA_site7334]", "gcPBM binding intensity (ln)": 6.8},
      {"sequence": "AATTATACATATATTTAACACACATTTTATAAAGTG [CACACA_site8362]", "gcPBM binding intensity (ln)": 6.94},
      {"sequence": "ATATATATATATAATTGTACATGTGTGTATAATTTG [XGTACX_site2417]", "gcPBM binding intensity (ln)": 9.29}
    ]}
  ]
}
